Further values from the same series stand in other lists.
Columns and labels:
Assay in all cases: concentration in plasma after dosing
Rat [1] = details: dosed: Isoeugenol, 70 mg/kg, oral, Female, F344/N
Rat [2] = details: dosed: Isoeugenol, 140 mg/kg, oral, Male, F344/N
Rat [3] = details: dosed: Isoeugenol, 140 mg/kg, oral, Male, F344/N; remark: listed apart in the source
Rat [4] = details: dosed: Isoeugenol, 140 mg/kg, oral, Female, F344/N
Rat [5] = details: dosed: Isoeugenol, 70 mg/kg, oral, Female, F344/N; remark: listed apart in the source
Rat [6] = details: dosed: Isoeugenol, 17 mg/kg, iv, Female, F344/N
Rat [7] = details: dosed: Isoeugenol, 70 mg/kg, oral, Male, F344/N
Rat [8] = details: dosed: Isoeugenol, 140 mg/kg, oral, Female, F344/N; remark: listed apart in the source
Rat [9] = details: dosed: Isoeugenol, 140 mg/kg, oral, Female, F344/N; remark: listed apart in the source
Rat [10] = details: dosed: Isoeugenol, 17 mg/kg, iv, Female, F344/N; remark: listed apart in the source
Rat [11] = details: dosed: Isoeugenol, 17 mg/kg, iv, Female, F344/N; remark: listed apart in the source
Rat [12] = details: dosed: Isoeugenol, 17 mg/kg, iv, Female, F344/N; remark: listed apart in the source
Rat [13] = details: dosed: Perfluorohexane-1-sulphonic acid – potassium salt, 4 mg/kg, oral, Female, Harlan Sprague Dawley
Rat [14] = details: dosed: Perfluorohexane-1-sulphonic acid – potassium salt, 32 mg/kg, oral, Female, Harlan Sprague Dawley
Rat [15] = details: dosed: Perfluorohexane-1-sulphonic acid – potassium salt, 32 mg/kg, oral, Male, Harlan Sprague Dawley
Rat [16] = details: 96 h; dosed: Perfluorohexane-1-sulphonic acid – potassium salt; 16 mg/kg; oral; Female; Harlan Sprague Dawley
Rat [17] = details: dosed: Perfluorohexane-1-sulphonic acid – potassium salt, 4 mg/kg, Female, F344
Rat [18] = details: 96 h; dosed: Perfluorohexane-1-sulphonic acid – potassium salt; 16 mg/kg; oral; Female; Harlan Sprague Dawley; remark: listed apart in the source
Rat [19] = details: dosed: Perfluorohexane-1-sulphonic acid – potassium salt, 4 mg/kg, Female, F344; remark: listed apart in the source
Rat [20] = details: 24 h; dosed: Perfluorohexane-1-sulphonic acid – potassium salt; 16 mg/kg; oral; Female; Harlan Sprague Dawley
Rat [21] = details: dosed: Fluorotelomer alcohol 8+2, 80 mg/kg, oral, Female, Harlan Sprague Dawley
Rat [22] = details: dosed: Fluorotelomer alcohol 8+2, 160 mg/kg, oral, Female, Harlan Sprague Dawley
Rat [23] = details: dosed: Fluorotelomer alcohol 8+2, 160 mg/kg, oral, Female, Harlan Sprague Dawley; remark: listed apart in the source
Rat [24] = details: dosed: Fluorotelomer alcohol 8+2, 40 mg/kg, oral, Female, Harlan Sprague Dawley
Rat [25] = details: dosed: Fluorotelomer alcohol 8+2, 160 mg/kg, oral, Female, Harlan Sprague Dawley; remark: listed apart in the source
Rat [26] = details: dosed: Fluorotelomer alcohol 8+2, 40 mg/kg, oral, Female, Harlan Sprague Dawley; remark: listed apart in the source
Rat [27] = details: 3 h; dosed: Fluorotelomer alcohol 8+2; 24 mg/kg; oral; Male; Harlan Sprague Dawley
Rat [28] = details: 3 h; dosed: Fluorotelomer alcohol 8+2; 80 mg/kg; oral; Female; Harlan Sprague Dawley
Rat [29] = details: dosed: Fluorotelomer alcohol 8+2, 160 mg/kg, oral, Female, Harlan Sprague Dawley; remark: listed apart in the source
Rat [30] = details: 3 h; dosed: Fluorotelomer alcohol 8+2; 160 mg/kg; oral; Female; Harlan Sprague Dawley
Rat [31] = details: 3 h; dosed: Fluorotelomer alcohol 8+2; 48 mg/kg; oral; Male; Harlan Sprague Dawley
Rat [32] = details: 3 h; dosed: Fluorotelomer alcohol 8+2; 160 mg/kg; oral; Female; Harlan Sprague Dawley; remark: listed apart in the source
Rat [33] = details: 0.5 h; dosed: Fluorotelomer alcohol 8+2; 160 mg/kg; oral; Female; Harlan Sprague Dawley
Rat [34] = details: dosed: Fluorotelomer alcohol 8+2, 48 mg/kg, oral, Male, Harlan Sprague Dawley

C/C=C/c1ccc(O)c(OC)c1 [Isoeugenol]
Details	concentration in plasma [ng/mL]
Rat [1], 2 min	194
Rat [1], 4 h	146
Rat [2], 1.5 h	850
Rat [2], 3 h	224
Rat [3], 2 min	1340
Rat [3], 6 h	308
Rat [4], 2 min	374
Rat [4], 10 h	44.3
Rat [5], 1 h	123
Rat [5], 5 h	435
Rat [6], 5 h	20.7
Rat [6], 5 min	8280
Rat [7], 1 h	451
Rat [7], 3 h	95.3
Rat [8], 1 h	993
Rat [8], 4 h	512
Rat [9], 5 h	489
Rat [9], 10 min	1690
Rat [10], 0.5 h	895
Rat [10], 3 h	74.3
Rat [11], 2 h	130
Rat [11], 2 min	9450
Rat [12], 2 min	8460
Rat [12], 4 h	47.4

O=S(=O)([O-])C(F)(F)C(F)(F)C(F)(F)C(F)(F)C(F)(F)C(F)(F)F.[K+] [Perfluorohexane-1-sulphonic acid – potassium salt]
Details	concentration in plasma [ng/mL]
Rat [13], 1 h	15300
Rat [13], 24 h	19400
Rat [13], 288 h	407
Rat [14], 6 h	145000
Rat [14], 96 h	25100
Rat [15], 3 h	179000
Rat [15], 24 h	160000
Rat [15], 1200 h	27400
Rat [17], 3 h	33900
Rat [17], 5 min	62000
Rat [17], 192 h	17300
Rat [19], 0.5 h	43300
Rat [19], 12 h	24200
Rat [19], 1200 h	6230

Details	concentration in plasma [ng/mL]
Rat [16]	27000
Rat [18]	20100
Rat [20]	61100

O=C(O)CCC(F)(F)C(F)(F)C(F)(F)C(F)(F)C(F)(F)C(F)(F)C(F)(F)F [Fluorotelomer acid 7+3]
Details	concentration in plasma [ng/mL]
Rat [21], 0.75 h	1330
Rat [21], 48 h	970
Rat [22], 0.75 h	1220
Rat [22], 12 h	7150
Rat [23], 0.25 h	125
Rat [23], 6 h	10200
Rat [24], 1 h	1380
Rat [24], 24 h	482
Rat [25], 0.75 h	1400
Rat [25], 12 h	3070
Rat [26], 0.25 h	83.2
Rat [26], 6 h	2380
Rat [29], 1 h	2640
Rat [29], 24 h	1540
Rat [34], 1 h	751
Rat [34], 24 h	643

Details	concentration in plasma [ng/mL]
Rat [27]	1530
Rat [28]	10700
Rat [30]	7990
Rat [31]	1280
Rat [32]	7090
Rat [33]	373

From EPA's CvTdb concentration-time database
